Test results taken from PMC4336329 (PLoS ONE, 2015).
Among all 310,000 compounds or so, about 14,000 (4.5%) showed an effect of 50% or more. The effect is printed as a negative number. This is one part of the list.

These compounds were tested against human ether-à-go-go-related gene (hERG) potassium channel (human, UniProt Q12809) (assay: primary screen, population patch clamp on CHO cells stably expressing hERG).
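Note: peak tail current of the secondary pulse compared with the same well before compound.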

Sequence of human ether-à-go-go-related gene (hERG) potassium channel (Q12809 whole entry, looked up): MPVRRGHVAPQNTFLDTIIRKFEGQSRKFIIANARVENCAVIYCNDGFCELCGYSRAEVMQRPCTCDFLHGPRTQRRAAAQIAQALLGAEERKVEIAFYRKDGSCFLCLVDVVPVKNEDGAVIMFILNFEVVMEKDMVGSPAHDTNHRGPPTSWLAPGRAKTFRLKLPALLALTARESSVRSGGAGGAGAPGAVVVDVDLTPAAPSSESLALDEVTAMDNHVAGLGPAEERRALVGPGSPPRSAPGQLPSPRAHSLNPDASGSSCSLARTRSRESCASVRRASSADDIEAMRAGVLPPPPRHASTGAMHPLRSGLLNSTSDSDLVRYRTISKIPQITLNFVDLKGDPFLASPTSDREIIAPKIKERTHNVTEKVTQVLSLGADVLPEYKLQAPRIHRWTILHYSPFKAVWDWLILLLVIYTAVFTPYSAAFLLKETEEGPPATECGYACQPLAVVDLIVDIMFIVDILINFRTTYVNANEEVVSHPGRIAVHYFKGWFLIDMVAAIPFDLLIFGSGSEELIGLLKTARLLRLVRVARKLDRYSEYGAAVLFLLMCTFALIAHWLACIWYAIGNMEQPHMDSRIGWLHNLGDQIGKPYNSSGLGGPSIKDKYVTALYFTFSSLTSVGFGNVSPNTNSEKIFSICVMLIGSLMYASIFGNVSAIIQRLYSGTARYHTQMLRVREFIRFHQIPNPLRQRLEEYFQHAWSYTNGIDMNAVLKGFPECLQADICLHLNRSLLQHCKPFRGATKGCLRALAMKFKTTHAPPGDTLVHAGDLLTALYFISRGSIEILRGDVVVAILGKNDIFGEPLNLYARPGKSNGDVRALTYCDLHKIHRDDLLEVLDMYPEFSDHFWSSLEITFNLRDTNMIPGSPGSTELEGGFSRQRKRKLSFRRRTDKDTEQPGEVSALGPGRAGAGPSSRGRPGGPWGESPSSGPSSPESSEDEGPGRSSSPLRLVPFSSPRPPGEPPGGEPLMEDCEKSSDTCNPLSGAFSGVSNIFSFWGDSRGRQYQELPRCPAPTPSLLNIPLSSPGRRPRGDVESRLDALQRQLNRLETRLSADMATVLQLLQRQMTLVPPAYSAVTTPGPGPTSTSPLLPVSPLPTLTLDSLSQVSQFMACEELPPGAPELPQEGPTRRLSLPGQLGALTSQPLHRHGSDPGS

Structure (SMILES)	hERG current change (%, negative = inhibition) at 10uM [%]
C=CCc1cc(C=O)cc(OCC)c1O	14
O=C(Nc1nccs1)c1ccc(S(=O)(=O)NCC2CCCCC2)cc1	-6.69
CC(Oc1ccc(F)cc1)C(=O)Nc1ccccc1C(=O)N1CCCCC1 (stereo not drawn)	-15.1
Cc1ccc(N2C(=O)CC(=O)NC2=O)cc1Cl	13.9
C=CCOc1c(Cl)cc(C(=S)N2CCCC2)cc1OCC	18.6
Cc1ccc(NC(=O)CCNS(=O)(=O)c2ccc3[nH]c(=O)oc3c2)c(C)c1	14.8
COc1ccc(C2C(C(C)=O)=C(O)C(=O)N2CCc2ccccc2)c(OC)c1 (stereo not drawn)	6.42
N#CCC(=O)Nc1cc(C(F)(F)F)ccc1N1CCOCC1	6.02
CCC(C(=O)O/N=C(\N)c1ccc(C)cc1)c1ccccc1 (stereo not drawn)	-0.704
COC(=O)CC1C(=O)NCCN1Cc1cn(-c2ccc(C)cc2)nc1-c1cccc(C)c1 (stereo not drawn)	-9.55
COc1ccc(-c2c(C)n([O-])c3c([n+]2=O)CCCCC3)cc1OC	14
O=C1NCCCCC1NS(=O)(=O)c1ccc(F)c(F)c1 (stereo not drawn)	4.76
CCOC(=O)N1CCN(S(=O)(=O)c2ccc(C)c([N+](=O)[O-])c2)CC1	-13.4
Cc1nn2c(Nc3ccccc3)c3c(nc2c1-c1ccccc1)CCC3	14.1
O=C(NC(=S)Nc1nc(-c2ccc(Br)cc2)cs1)c1ccco1	21.8
CCOC(=O)c1c(C)oc2ccc(OCC(=O)C(C)(C)C)cc12	12.2
CCOc1ccc(C(=O)Nc2cccc3ncccc23)cc1Br	17.4
CCOc1ccc(Br)cc1S(=O)(=O)N1CCCN(C)CC1	-4.35
CN(C(=O)COC(=O)CNC(=O)c1cccs1)c1c(N)n(Cc2ccccc2)c(=O)[nH]c1=O	1.05
CCOc1ccccc1Nc1nc(N2CCCC2)nc(N2CCOCC2)n1	-2.63
CC1CN(c2ncnc3c2c(-c2ccccc2)cn3-c2ccc(F)cc2)CC(C)O1 (stereo not drawn)	12
COC(=O)c1ccc(NCCc2csc(-c3ccc(C)cc3)n2)c([N+](=O)[O-])c1	1.66

Structure (SMILES)	hERG current change (%, negative = inhibition) at 10uM [%]
CCCOc1cc(C)c(S(=O)(=O)N2CCOCC2)cc1C	0.0182
COc1cc(/C=C2\C(=O)NN(c3ccccc3)C2=O)cc([N+](=O)[O-])c1O	22
CN1CCN(NC(=O)Nc2ccc([N+](=O)[O-])cc2)CC1	-18.8
CCOC(=O)[C@@H]1[C@H]2COc3ccccc3[C@H]2N2C(=O)N(c3ccccc3)C(=O)[C@]12C	-9.02
COc1cnc(-c2ccccc2)nc1Oc1cccc(C)c1	-3.84
CCn1nnc(NC(=O)COc2ccc([N+](=O)[O-])cc2)n1	-13
COC(=O)c1cc2ccsc2n1CC(=O)Nc1cc(Cl)ccc1OC	6.58
COc1ccc(CCNC(=O)c2cc(-c3ccc(C)c(C)c3O)n[nH]2)cc1OC	14.7
C=CCOC(=O)C1=C(C)NC(SC)=C(C#N)C1c1ccc(OCC)cc1 (stereo not drawn)	-12.6
O=C(CCc1nc2ccccc2c(=O)[nH]1)Nc1nnc(SCc2ccc(F)cc2)s1	7.47
CC(=O)c1c(C)[nH]c(C(=O)N2CCCC(C)C2)c1C (stereo not drawn)	9.47
CCC(C)(c1nnnn1-c1c(C)cccc1C)N(N=O)c1ccccc1Cl (stereo not drawn)	11.9
Cc1cccc(-c2nsc(SCC(=O)N3CCCC3)n2)c1	-3.24
CC(C)c1cccc(C(C)C)c1NC(=O)CNCc1ccccc1F.O=C(O)C(=O)O	-18.9
O=C(NC(Cc1c[nH]c2ccccc12)C(=O)N/N=C/c1cccnc1)c1cccs1 (stereo not drawn)	-7.7
CSc1ccc(Cl)c(C(=O)N(C)CC(=O)Nc2ccc(N3CCOCC3)cc2)c1	-0.854
O=C(NCc1ccc(F)cc1)c1cc2ccccc2o1	-13.4
CC(CNC1CCCCC1)OC(=O)c1ccccc1.Cl (stereo not drawn)	-8.12
O=C(c1ccco1)N1CCN(C(=O)c2cc(Cl)nc3ccccc23)CC1	-35.2
Nn1c(SCC(=O)Nc2ccc(F)cc2F)nnc1-c1cccnc1	17.8
NNC(=O)c1csc(-c2ccc(C(F)(F)F)cc2Cl)n1	-19.2
CC(OC(=O)CNS(=O)(=O)c1ccc(C#N)cc1)C(=O)Nc1cccc(C#N)c1 (stereo not drawn)	-27.7

Structure (SMILES)	hERG current change (%, negative = inhibition) at 10uM [%]
Cc1ccc(C(=O)N2CCCC(Nc3ccc(F)cc3)C2)cc1C (stereo not drawn)	0.463
COc1cccc(CN(C)CC(=O)Nc2cc3oc4ccccc4c3cc2OC)c1	4.87
CCCCN1C(=O)Nc2ccccc2S1(=O)=O	-36.6
Cc1ccc(-n2c(C)cc(/C=N/NC(=O)c3ccncc3)c2C)cc1C	17.3
COc1ccc(OC)c(NC(=S)Nc2ccccc2)c1	18.7
O=C(COc1cccc(Oc2ccccc2)c1)Nc1ccc(SC(F)F)cc1	9.13
CCN(CC(=O)Nc1cccc(S(=O)(=O)N(C)c2ccccc2)c1)Cc1ccccc1	-21.7
COc1ccccc1NC(=O)c1cc2c(CO)cnc(C)c2oc1=Nc1cccc(C(N)=O)c1	32.7
COc1ccc(CSCC(=O)N/N=C/c2ccccc2O)cc1	2.06
CC(C)Cn1c(SCC(=O)NCc2ccc(Cl)cc2)nnc1-c1cccc(S(=O)(=O)N2CCOCC2)c1	-52.9
Oc1ccc2ccccc2c1CNc1ccc(Br)cn1	16.7
O=C(Nc1cnn(Cc2ccc(F)cc2)c1)c1cnccn1	-3.09
CN(C)/C=N/c1c(C(=O)NCc2ccccc2)nnn1Cc1ccccc1	-12.2
Cc1ccc(C(=O)N/N=C/c2ccoc2)cc1C	-11
CSCCCNC(=S)Nc1ccc(N2CCOCC2)cc1N1CCOCC1	-13.5
Cc1ccccc1Cc1c(C)nc2c(C(=O)NCc3ccco3)cnn2c1C	-49.2
Cc1noc(NS(=O)(=O)c2ccc(N/C=C/C(=O)c3ccc4c(c3)OCO4)cc2)c1C	-0.795
Cc1ccc(-n2ncc(N(C)C)c(Cl)c2=O)cc1	-1.82
CN1CCN(c2ccc(NC(=O)c3ccc(C(F)(F)F)cc3)cn2)CC1	-73.2
Cn1cccc1/C=N/NC(=O)c1cccc(OC(F)(F)C(F)F)c1	-14.9
CC(CCc1ccco1)NC(=O)CCc1nnc2ccc(NCc3ccccc3Cl)nn12 (stereo not drawn)	13.6
O=C(Nc1ccccc1C(F)(F)F)c1cc(-c2cccc(O)c2)on1	1.8

Structure (SMILES)	hERG current change (%, negative = inhibition) at 10uM [%]
CN(C(=O)C1CCCN1S(=O)(=O)c1ccc(Cl)cc1)c1ccccc1 (stereo not drawn)	-24.1
Cc1cc(C(=O)C(=O)NC(C)C)c(C)n1-c1ccc([N+](=O)[O-])cc1	-22.8
Cc1cccc(OCCNc2cc(N3CCN(C)CC3)ccc2[N+](=O)[O-])c1	-20.1
COc1ccc(Cc2nc3ccc(C(=O)N(C)CC4COCCO4)cc3o2)cc1 (stereo not drawn)	-2.58
COc1ccc(CCC(=O)NCC23CC4CC(CC(C4)C2)C3)cc1	-31.3
COc1cccc(CN(CC(=O)NCc2ccc(F)cc2)C(=O)c2ccco2)c1	-39.2
CN1C(=O)Cc2cc(S(=O)(=O)Nc3ccc(Cl)cc3)ccc21	8.94
COC(=O)[C@@H]1C[C@@]2(O)[C@H](O)[C@H](O)[C@H](O)C[C@H]2N1Cc1ccc(C)s1	5.07
CC1=CCC2C(=O)N(c3cccc(C(=O)NCc4ccccc4)c3)C(=O)C2C1 (stereo not drawn)	2.53
CCN(CC(=O)Nc1c(F)cccc1F)C(=O)COc1ccc2c(c1)CCC2	-2.81
CS(=O)(=O)N(CC(=O)N1CCN(c2ccccc2)CC1)C1CCCCC1	19.2
O=C(Cc1cccc2ccccc12)NC(NC(=S)Nc1ccccc1Cl)C(Cl)(Cl)Cl (stereo not drawn)	11.7
COC1=CC(=Cc2c(N)n3nc(CC(=O)N4CCOCC4)sc3nc2=O)C=C(OC)C1=O	12.6
O=C(N=C1c2ccccc2CN1c1cccc(Cl)c1)c1cccnc1	-8.9
O=C(NCCc1ccccc1)c1cc2ncc(Br)cn2n1	-21.6
Cc1cccc(-n2c(-c3ccccc3)c[nH]c2=S)c1C	14.6
CCN(CC(=O)Nc1c(F)cccc1F)C(=O)c1ccc2c(c1)NC(=O)C(C)S2 (stereo not drawn)	-7.33
O=C(CNCc1ccc(F)cc1)Nc1ccccc1-c1ccccc1	-10.2
O=C(OCC(=O)N1CCCc2ccccc21)c1cc(S(=O)(=O)N2CCOCC2)ccc1Cl	-5.97
Clc1ccc(-c2cnc3n2CCCCC3)cc1	-46.4
O=C(CSc1nc2ccccc2c(=O)n1Cc1ccccc1)NCc1ccco1	-39.6
